Assay results: patent EP1951748B1, “HEPATITIS C VIRUS VARIANTS” (Vertex Pharmaceuticals, Inc., priority 2005, dated 2007)

Legend:
[1] = tested on: HCV NS3 protease V36M, R155K; type: biochemical; settings: enzyme IC50 of V36M, R155K compared to the genotype 1a HCV-H reference strain; 15 min
[2] = tested on: HCV NS3 protease V36M, R155T; type: biochemical; settings: enzyme IC50 of V36M, R155T compared to the genotype 1a HCV-H reference strain; 15 min

In the case of `COc1ccc2c(O[C@@H]3C[C@H]4C(=O)N[C@]5(C(=O)O)C[C@H]5/C=C\CCCCC[C@H](NC(=O)OC5CCCC5)C(=O)N4C3)cc(-c3csc(NC(C)C)n3)nc2c1` [BILN 2061], the Fold change [1] was over 183 and the Fold change [2] was 158.
